The values below come from PMC5540273 (PLoS ONE, 2017).

The structures appear in SMILES notation. For part of these data: This list holds what a sample rich in strong results left over. The list shows a part of the results, in another mix than the full data.

What all share (settings): concentration: 1 μM,replicates: in singlicate; n = 1
Experiment [1] relates to DAPK3.
Experiment [2] deals with T1, DCAMKL1.
T1 construct: gene DCLK1

The subject of experiment [3] is T2, DCAMKL2.
T2 construct: gene DCLK2

In experiment [4] the test system is T3, DCAMKL3.
T3 construct: gene DCLK3

The subject of experiment [5] is DDR1.
Experiment [6] concerns DDR2.
In experiment [7] the test system is T4, DLK.
T4 construct: gene MAP3K12

Experiment [8] concerns T5, DMPK2.
T5 construct: gene CDC42BPG

For experiment [9], the system named is DMPK.
For experiment [10], the system named is T6, DRAK1.
T6 construct: gene STK17A

Experiment [11] concerns T7, DRAK2.
T7 construct: gene STK17B

The subject of experiment [12] is DYRK1A.
The subject of experiment [13] is DYRK1B.
The test system of experiment [14] is DYRK2.
The test system of experiment [15] is EGFR.
Experiment [16] concerns EIF2AK1.
Experiment [17] concerns EPHA1.
Experiment [18] concerns EPHA2.
The test system of experiment [19] is EPHA3.
In experiment [20] the test system is EPHA4.
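Also: KINOMEscan kinase panel screen.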

For `COc1cccc(C2=C(Nc3ccc(SC)cc3)C(=O)NC2=O)c1` [SB-331032], the “%Inh” value in [1] is listed as 20%; in experiment [2], 21%; in [3] it was 7%; in experiment [4], 9%; in experiment [5], 0%; in [6], 32%. For the same compound, the “%Inh” value is listed as 0% in experiment [7]; 11% in [8]; 25% in experiment [9]; 0% in experiment [10]; 0% in experiment [11]; 44% in experiment [12]. Further, the “%Inh” value in [13] is 8%; in experiment [14], 35%; in [15], 11%; in experiment [16], 0%; in experiment [17], 0%; in [18], 0%. For the same compound, the “%Inh” value was determined as 25% in experiment [19] and 0% in experiment [20].
Consider `Cc1ccc(C)c(Oc2nccc(-c3c(-c4ccc(F)cc4)ncn3C3CCNCC3)n2)c1.O=C(O)C(F)(F)F.O=C(O)C(F)(F)F.O=C(O)C(F)(F)F` [SB-284852], for which the “%Inh” value is given as 0% in experiment [1]; 23% in experiment [2]; 0% in experiment [3]; 23% in [4]; 2% in [5]; 0% in experiment [7]. Moreover, the “%Inh” value is recorded as 94.8% in experiment [8]; 4% in experiment [9]; 0% in [10]; 10% in experiment [11]; 0% in [12]; 13% in experiment [13]. For the same compound, the “%Inh” value in experiment [14] amounted to 0%; in experiment [15], 47%; in experiment [16] it was 0%; in experiment [17] it was 31%; in experiment [18], 22%; in [19], 0%. Also, in experiment [20], the “%Inh” value is 16%.
For the compound `O=C1NC(=O)C(c2ccccc2)=C1Nc1ccc(Cl)c(C(=O)O)c1` [SB-390532], the “%Inh” value in [1] is given as 20%; in experiment [2], 18%; in experiment [3], 1%; in [4] it was 2%; in experiment [5], 0%; in [6], 45%. Besides, the “%Inh” value in [7] turned out to be 38%; in [8] it was 0%; in [9] it was 0%; in [10], 1%; in experiment [11] it was 0%; in experiment [12], 17%. Besides, the “%Inh” value in experiment [13] worked out at 0%; in experiment [14], 0%; in experiment [15], 30%; in [16] it was 0%; in experiment [17], 26%; in experiment [18] it was 16%. In addition, the “%Inh” value in experiment [19] and in experiment [20] was 0% each time.
Take `O=C1NC(=O)C(c2ccccc2Cl)=C1Nc1ccccc1` [SB-376715]: the “%Inh” value worked out at 12% in experiment [1]; 0% in experiment [2]; 0% in experiment [3]; 45% in experiment [4]; 0% in experiment [5]; 16% in [6]. Besides, the “%Inh” value worked out at 9% in [7]; 0% in [8]; 29% in experiment [9]; 2% in [10]; 0% in experiment [11]; 43% in experiment [12]. Moreover, the “%Inh” value amounted to 22% in experiment [13]; 11% in experiment [14]; 11% in [15]; 0% in [16]; 0% in experiment [17]; 8% in [18]. Besides, the “%Inh” value in [19] came out at 12%; in experiment [20] it was 0%.
On to `O=C1NC(=O)c2c1c(-c1ccccc1)cc1[nH]c3ccc(O)cc3c21`, for which the “%Inh” value in [1] is reported as 7%; in experiment [2] it was 18%; in experiment [3], 23%; in experiment [4], 91.5%; in experiment [5], 0%; in [6], 3%. Besides, the “%Inh” value is given as 14% in experiment [7]; 3% in [8]; 98.4% in experiment [9]; 85% in [10]; 42% in [11]; 37% in experiment [12]. The “%Inh” value is 2% in experiment [13]; 88% in [14]; 1% in experiment [15]; 8% in experiment [16]; 20% in experiment [17]; 21% in experiment [18]. Moreover, the “%Inh” value in experiment [19] and in [20] was 0% throughout.
In the case of `O=C1NC(=O)C(c2ccc(Cl)cc2)=C1Nc1ccccc1` [SB-317661], the “%Inh” value in experiment [1] turned out to be 22%; in experiment [2], 16%; in experiment [3] it was 0%; in [4] it was 0%; in experiment [5] it was 0%; in [6] it was 14%. Moreover, the “%Inh” value in experiment [7] is recorded as 13%; in experiment [8], 0%; in experiment [9], 0%; in experiment [10], 0%; in experiment [11], 0%; in [12], 0%. The “%Inh” value in experiment [13] is 24%; in [14], 49%; in experiment [15], 12%; in experiment [16], 0%; in experiment [17] it was 0%; in experiment [18], 0%. The figures for the “%Inh” value in experiment [19] and in experiment [20] were 11% and 0%, respectively.
For `O=C1NC(=O)C(c2ccc(Cl)cc2)=C1Nc1ccc(O)c(Cl)c1` [SB-405367], the “%Inh” value is listed as 0% in [1]; 32% in experiment [2]; 0% in experiment [3]; 4% in experiment [4]; 64% in experiment [5]; 0% in experiment [6]. Besides, the “%Inh” value in [7] stood at 0%; in experiment [8], 0%; in experiment [9], 0%; in experiment [10] it was 0%; in experiment [11] it was 0%; in experiment [12], 26%. For the same compound, the “%Inh” value amounted to 0% in [13]; 0% in [14]; 9% in experiment [15]; 10% in experiment [16]; 1% in experiment [17]; 18% in [18]. For the same compound, the “%Inh” value in experiment [19] came out at 1%; in experiment [20], 0%.
As for `COc1ccc(C2=C(Nc3cccc(Cl)c3)C(=O)NC2=O)cc1` [SB-326892], the “%Inh” value amounted to 0% in experiment [1]; 6% in experiment [2]; 0% in experiment [3]; 32% in experiment [4]; 0% in [5]; 0% in [6]. The “%Inh” value in experiment [7] was found to be 5%; in [8] it was 0%; in experiment [9] it was 0%; in [10], 4%; in experiment [11], 0%; in experiment [12], 31%. For the same compound, the “%Inh” value was found to be 23% in experiment [13]; 17% in [14]; 10% in experiment [15]; 0% in experiment [16]; 32% in experiment [17]; 7% in [18]. The “%Inh” value in [19] is 0%; in experiment [20], 20%.
